# Laboratory results taken from the supplement of paper PMC10037445.
# Whole data set: some 2,900 compounds, median “IRF Lucia reporter activity, fold change vs agonist alone” near 0.9, cut for the highest 2% near 2.8. This is one part of the list.
# Legend:
# RAW-Dual [1] = test: IRF Lucia reporter activity, fold change vs agonist alone; higher = enhanced IRF activity; conditions: agonist: MPLA (TLR4) […]
# How it was run: (§1)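 Cytotoxic wells were those whose IncuCyte confluency was below 70% of agonist controls in both mask sets. The cells were RAW-Dual macrophages at 50,000 cells/well in DMEM on 384-well plates, dosed with 50 nL of library stock by pin tool, stimulated with a PRR agonist 1 h later, and kept at 37 °C, 5% CO2 for 20 hours. IRF and NF-κB reporter activity, as fold change over agonist-alone wells, came from supernatant read by QuantiLuc luminescence and QuantiBlue absorbance, respectively.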
# RAW-Dual [2] = test: IRF Lucia reporter activity, fold change vs agonist alone; cytotoxicity flag (confluency mask): not cytotoxic; higher = enhanced IRF activity
# How it was run: as §1
# RAW-Dual [3] = test: IRF Lucia reporter activity, fold change vs agonist alone; cytotoxicity flag (confluency mask): cytotoxic (confluency <70% of control); higher = enhanced IRF activity
# How it was run: as §1
# [4] = library stock concentration (final ~1000-fold dilution): 10 mM, cytotoxicity flag (confluency mask): not cytotoxic
# [5] = agonist: 3'3'-cGAMP (STING) 10 ug/mL
# [6] = library stock concentration (final ~1000-fold dilution): 10 mM, cytotoxicity flag (confluency mask): cytotoxic (confluency <70% of control)
smiles,measurement,setting,value
Cc1nc(C(=O)NCC(=O)O)c(O)c2ccc(Oc3ccccc3)cc12,IRF Lucia reporter activity,RAW-Dual [1]; [4],1.15
Cc1nc(C(=O)NCC(=O)O)c(O)c2ccc(Oc3ccccc3)cc12 (library stock concentration (final ~1000-fold dilution): 10 mM),IRF Lucia reporter activity,RAW-Dual [2]; [5],0.595
same,IRF Lucia reporter activity,RAW-Dual [2]; agonist: LPS (TLR4) 0.1 ug/mL,1.47
CCOC(=O)C1=C(N)Oc2ccc(Cl)cc2C1C(C#N)C(=O)OCC (centres undefined) (library stock concentration (final ~1000-fold dilution): 10 mM),IRF Lucia reporter activity,RAW-Dual [3]; [5],0.086
same,IRF Lucia reporter activity,RAW-Dual [3]; agonist: LPS (TLR4) 0.1 ug/mL,1.63
COc1nc2ccc(Br)cc2cc1C(c1ccccc1)C(O)(CCN(C)C)c1cccc2ccccc12 (centres undefined),IRF Lucia reporter activity,RAW-Dual [1]; [4],0.763
COc1nc2ccc(Br)cc2cc1C(c1ccccc1)C(O)(CCN(C)C)c1cccc2ccccc12 (centres undefined) (library stock concentration (final ~1000-fold dilution): 10 mM),IRF Lucia reporter activity,RAW-Dual [2]; [5],0.869
same,IRF Lucia reporter activity,RAW-Dual [2]; agonist: LPS (TLR4) 0.1 ug/mL,0.375
COc1cc2c(NC3CCN(C(C)C)CC3)nc(N3CCC(F)(F)CC3)nc2cc1OCCCN1CCCC1 (library stock concentration (final ~1000-fold dilution): 10 mM),IRF Lucia reporter activity,RAW-Dual [3]; [5],0.849
same,IRF Lucia reporter activity,RAW-Dual [3]; agonist: LPS (TLR4) 0.1 ug/mL,4.2
COc1cc2c(NC3CCN(C(C)C)CC3)nc(N3CCC(F)(F)CC3)nc2cc1OCCCN1CCCC1,IRF Lucia reporter activity,RAW-Dual [1]; [6],0.652
CCn1c(=O)c(-c2ccn[nH]2)cc2c(C)nc(N)nc21 (library stock concentration (final ~1000-fold dilution): 10 mM),IRF Lucia reporter activity,RAW-Dual [2]; [5],0.238
same,IRF Lucia reporter activity,RAW-Dual [2]; agonist: LPS (TLR4) 0.1 ug/mL,0.702
CCc1cccc(CC)c1NC(=O)N1Cc2[nH]nc(NC(=O)c3ccc(N4CCN(C)CC4)cc3)c2C1,IRF Lucia reporter activity,RAW-Dual [1]; [4],0.317
CCc1cccc(CC)c1NC(=O)N1Cc2[nH]nc(NC(=O)c3ccc(N4CCN(C)CC4)cc3)c2C1 (library stock concentration (final ~1000-fold dilution): 10 mM),IRF Lucia reporter activity,RAW-Dual [2]; [5],0.425
same,IRF Lucia reporter activity,RAW-Dual [2]; agonist: LPS (TLR4) 0.1 ug/mL,0.383
COc1ccc(Cl)cc1C(=O)NCCc1ccc(S(=O)(=O)NC(=O)NC2CCCCC2)cc1 (library stock concentration (final ~1000-fold dilution): 50 mM),IRF Lucia reporter activity,RAW-Dual [2]; [5],0.761
same,IRF Lucia reporter activity,RAW-Dual [2]; agonist: LPS (TLR4) 0.1 ug/mL,1.09
N#Cc1ccc2ncnc(NCCc3ccccc3)c2c1 (library stock concentration (final ~1000-fold dilution): 10 mM),IRF Lucia reporter activity,RAW-Dual [2]; [5],0.147
same,IRF Lucia reporter activity,RAW-Dual [2]; agonist: LPS (TLR4) 0.1 ug/mL,0.399
O=[N+]([O-])c1ccc(Nc2nc(N3CCOCC3)nc(N3CCOCC3)n2)cc1 (library stock concentration (final ~1000-fold dilution): 10 mM),IRF Lucia reporter activity,RAW-Dual [2]; [5],0.372
same,IRF Lucia reporter activity,RAW-Dual [2]; agonist: LPS (TLR4) 0.1 ug/mL,1.09
O=C1O[C@H]([C@@H](O)CO)C([O-])=C1O.[Na+] (library stock concentration (final ~1000-fold dilution): 10 mM water),IRF Lucia reporter activity,RAW-Dual [2]; [5],1.45
same,IRF Lucia reporter activity,RAW-Dual [2]; agonist: LPS (TLR4) 0.1 ug/mL,0.717
Cn1c(=O)cc(N2CCCC(N)C2)n(Cc2cc(F)ccc2C#N)c1=O.O=C(O)CCC(=O)O (centres undefined) (library stock concentration (final ~1000-fold dilution): 10 mM),IRF Lucia reporter activity,RAW-Dual [2]; [5],1.04
same,IRF Lucia reporter activity,RAW-Dual [2]; agonist: LPS (TLR4) 0.1 ug/mL,1.26
Cn1c(=O)cc(N2CCCC(N)C2)n(Cc2cc(F)ccc2C#N)c1=O.O=C(O)CCC(=O)O (centres undefined),IRF Lucia reporter activity,RAW-Dual [1]; [4],1.13
CC(C)(C)c1cc(O)c(C(C)(C)C)cc1O (library stock concentration (final ~1000-fold dilution): 10 mM),IRF Lucia reporter activity,RAW-Dual [2]; [5],0.608
same,IRF Lucia reporter activity,RAW-Dual [2]; agonist: LPS (TLR4) 0.1 ug/mL,1.97
CC(C)(C)c1cc(O)c(C(C)(C)C)cc1O,IRF Lucia reporter activity,RAW-Dual [1]; [4],1.94
Cc1ccc(S(=O)(=O)Nc2nc3ccccc3nc2Nc2ccc3nsnc3c2)cc1,IRF Lucia reporter activity,"RAW-Dual [1]; library stock concentration (final ~1000-fold dilution): 2 mM, cytotoxicity flag (confluency mask): not cytotoxic",1.14
Cc1ccc(S(=O)(=O)Nc2nc3ccccc3nc2Nc2ccc3nsnc3c2)cc1 (library stock concentration (final ~1000-fold dilution): 2 mM),IRF Lucia reporter activity,RAW-Dual [2]; [5],0.727
same,IRF Lucia reporter activity,RAW-Dual [2]; agonist: LPS (TLR4) 0.1 ug/mL,0.954
NC1(Cc2ccc(Cl)cc2)CCN(c2ncnc3[nH]ccc23)CC1,IRF Lucia reporter activity,RAW-Dual [1]; [4],1.04
NC1(Cc2ccc(Cl)cc2)CCN(c2ncnc3[nH]ccc23)CC1 (library stock concentration (final ~1000-fold dilution): 10 mM),IRF Lucia reporter activity,RAW-Dual [2]; [5],1.05
same,IRF Lucia reporter activity,RAW-Dual [2]; agonist: LPS (TLR4) 0.1 ug/mL,0.584
COc1ccc(-c2ccc3c(N4CCOCC4C)nc(N4CCOCC4C)nc3n2)cc1CO (centres undefined),IRF Lucia reporter activity,RAW-Dual [1]; [4],0.506
COc1ccc(-c2ccc3c(N4CCOCC4C)nc(N4CCOCC4C)nc3n2)cc1CO (centres undefined) (library stock concentration (final ~1000-fold dilution): 10 mM),IRF Lucia reporter activity,RAW-Dual [2]; [5],0.322
same,IRF Lucia reporter activity,RAW-Dual [2]; agonist: LPS (TLR4) 0.1 ug/mL,0.421
Cc1cc(C(C)Nc2ccccc2)c2nc(N3CCOCC3)cc(=O)n2c1 (centres undefined) (library stock concentration (final ~1000-fold dilution): 10 mM),IRF Lucia reporter activity,RAW-Dual [2]; [5],0.336
same,IRF Lucia reporter activity,RAW-Dual [2]; agonist: LPS (TLR4) 0.1 ug/mL,1.65
Cc1cc(C(C)Nc2ccccc2)c2nc(N3CCOCC3)cc(=O)n2c1 (centres undefined),IRF Lucia reporter activity,RAW-Dual [1]; [4],1.83
O=C1OC(COc2ccccc2[N+](=O)[O-])CC1Cc1ccccc1 (centres undefined) (library stock concentration (final ~1000-fold dilution): 10 mM),IRF Lucia reporter activity,RAW-Dual [2]; [5],1.23
same,IRF Lucia reporter activity,RAW-Dual [2]; agonist: LPS (TLR4) 0.1 ug/mL,1.23
Clc1ccc2nsnc2c1NC1=NCCN1,IRF Lucia reporter activity,RAW-Dual [1]; [4],0.967
Clc1ccc2nsnc2c1NC1=NCCN1 (library stock concentration (final ~1000-fold dilution): 10 mM),IRF Lucia reporter activity,RAW-Dual [2]; [5],0.968
same,IRF Lucia reporter activity,RAW-Dual [2]; agonist: LPS (TLR4) 0.1 ug/mL,0.863
Cc1cc(Nc2cc(N3CCN(C)CC3)nc(Sc3ccc(NC(=O)C4CC4)cc3)n2)n[nH]1,IRF Lucia reporter activity,RAW-Dual [1]; [4],0.524
Cc1cc(Nc2cc(N3CCN(C)CC3)nc(Sc3ccc(NC(=O)C4CC4)cc3)n2)n[nH]1 (library stock concentration (final ~1000-fold dilution): 10 mM),IRF Lucia reporter activity,RAW-Dual [2]; [5],0.117
same,IRF Lucia reporter activity,RAW-Dual [2]; agonist: LPS (TLR4) 0.1 ug/mL,0.512
O=C1c2ccc(O)cc2C(=O)c2ccc(O)cc21 (library stock concentration (final ~1000-fold dilution): 10 mM),IRF Lucia reporter activity,RAW-Dual [2]; [5],0.975
same,IRF Lucia reporter activity,RAW-Dual [2]; agonist: LPS (TLR4) 0.1 ug/mL,1.16
O=C1c2ccc(O)cc2C(=O)c2ccc(O)cc21,IRF Lucia reporter activity,RAW-Dual [1]; [4],1.02
CC(C)c1c2cc(-c3ccnc(NC4CCC(NC5CCOCC5)CC4)n3)ccc2nn1C (centres undefined) (library stock concentration (final ~1000-fold dilution): 10 mM),IRF Lucia reporter activity,RAW-Dual [3]; [5],0.0123
same,IRF Lucia reporter activity,RAW-Dual [3]; agonist: LPS (TLR4) 0.1 ug/mL,0.0195
CC(C)c1c2cc(-c3ccnc(NC4CCC(NC5CCOCC5)CC4)n3)ccc2nn1C (centres undefined),IRF Lucia reporter activity,RAW-Dual [1]; [6],0.0225
CC(=O)Nc1nnc(S(N)(=O)=O)s1 (library stock concentration (final ~1000-fold dilution): 10 mM),IRF Lucia reporter activity,RAW-Dual [2]; [5],1.07
same,IRF Lucia reporter activity,RAW-Dual [2]; agonist: LPS (TLR4) 0.1 ug/mL,1.38
CC(=O)Nc1nnc(S(N)(=O)=O)s1,IRF Lucia reporter activity,RAW-Dual [1]; [4],1.01
